This passage reports binding signal (RPM ratio (pull-down/input)) results from PMC12820563.

The other results are listed elsewhere or left out. The list includes weakly bound sequences.

For the assay, the target named is T1, MBP-FoxP3dN (UniProt Q99JB6).
T1 sequence: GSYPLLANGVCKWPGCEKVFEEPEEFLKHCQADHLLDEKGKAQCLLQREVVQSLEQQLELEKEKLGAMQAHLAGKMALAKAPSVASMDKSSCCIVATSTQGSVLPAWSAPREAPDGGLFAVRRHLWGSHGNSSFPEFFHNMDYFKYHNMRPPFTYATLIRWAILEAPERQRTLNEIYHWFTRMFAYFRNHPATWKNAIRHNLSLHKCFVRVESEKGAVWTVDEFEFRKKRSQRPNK
Nature of the assay: PD-seq (MBP pull-down with sequencing). The conditions noted are these: 20 mM Tris-HCl pH 7.5, 100 mM NaCl, 1.5 mM MgCl2, 0.4 uM protein, 0.1 uM dsDNA library, 30 min, room temperature, amylose pull-down; high values mean tight binding; double strand, one strand shown.
Turning to “GATGATTGTTCTCCCAGCTGATGAATTTGCAGTCTCGAGTAAACAAATTTTCCTAATCTTTCTGTTCAAGCGCCATCTAC”, the binding signal (RPM ratio (pull-down/input)) was 1.24. In the case of “GATGATTGTTCTCCCAGCTGATGAATTCCCTCACTCGAGTAAACAAATTTTCCTAATCTTTCTGTTCAAGCGCCATCTAC”, the binding signal (RPM ratio (pull-down/input)) worked out at 0.304. Take “GATGATTGTTCTCCCAGCTGATGAATTTCGTGTATCGAGTAAACAAATTTTCCTAATCTTTCTGTTCAAGCGCCATCTAC”: the binding signal (RPM ratio (pull-down/input)) was 1.91. For “GATGATTGTTCTCCCAGCTGATGAATTGTCAGATTCGAGTAAACAAATTTTCCTAATCTTTCTGTTCAAGCGCCATCTAC”, the binding signal (RPM ratio (pull-down/input)) amounted to 0.303. Then “GATGATTGTTCTCCCAGCTGATGAATTCCGTTTGTCGAGTAAACAAATTTTCCTAATCTTTCTGTTCAAGCGCCATCTAC”, with 3.25; and “GATGATTGTTCTCCCAGCTGATGAATTTCGCCGGTCGAGTAAACAAATTTTCCTAATCTTTCTGTTCAAGCGCCATCTAC”, with 0.652.

For “GATGATTGTTCTCCCAGCTGATGAATTCTATACCTCGAGTAAACAAATTTTCCTAATCTTTCTGTTCAAGCGCCATCTAC”, the binding signal (RPM ratio (pull-down/input)) is 0.418. Consider “GATGATTGTTCTCCCAGCTGATGAATTTCAAGGATCGAGTAAACAAATTTTCCTAATCTTTCTGTTCAAGCGCCATCTAC”, for which the binding signal (RPM ratio (pull-down/input)) came to 0.181.

Take “GATGATTGTTCTCCCAGCTGATGAATTTCGTTACTCGAGTAAACAAATTTTCCTAATCTTTCTGTTCAAGCGCCATCTAC”: the binding signal (RPM ratio (pull-down/input)) was 1.28. The same measure for “GATGATTGTTCTCCCAGCTGATGAATTTATTGAGTCGAGTAAACAAATTTTCCTAATCTTTCTGTTCAAGCGCCATCTAC”: 1.87. Regarding “GATGATTGTTCTCCCAGCTGATGAATTGTGTACCTCGAGTAAACAAATTTTCCTAATCTTTCTGTTCAAGCGCCATCTAC”, the binding signal (RPM ratio (pull-down/input)) was 3.41.

“GATGATTGTTCTCCCAGCTGATGAATTTTCACTGTCGAGTAAACAAATTTTCCTAATCTTTCTGTTCAAGCGCCATCTAC”: the binding signal (RPM ratio (pull-down/input)) is 0.293.

As for “GATGATTGTTCTCCCAGCTGATGAATTGTATCGGTCGAGTAAACAAATTTTCCTAATCTTTCTGTTCAAGCGCCATCTAC”, the binding signal (RPM ratio (pull-down/input)) was determined as 0.882. The same measure for “GATGATTGTTCTCCCAGCTGATGAATTGCTGATTTCGAGTAAACAAATTTTCCTAATCTTTCTGTTCAAGCGCCATCTAC”: 1.13.

With “GATGATTGTTCTCCCAGCTGATGAATTAATAGAGTCGAGTAAACAAATTTTCCTAATCTTTCTGTTCAAGCGCCATCTAC”, the binding signal (RPM ratio (pull-down/input)) stood at 0.294. Then “GATGATTGTTCTCCCAGCTGATGAATTGCCGGCATCGAGTAAACAAATTTTCCTAATCTTTCTGTTCAAGCGCCATCTAC”, with 1; and “GATGATTGTTCTCCCAGCTGATGAATTAGAACGTTCGAGTAAACAAATTTTCCTAATCTTTCTGTTCAAGCGCCATCTAC”, with 0.33; and “GATGATTGTTCTCCCAGCTGATGAATTGTTGTGGTCGAGTAAACAAATTTTCCTAATCTTTCTGTTCAAGCGCCATCTAC”, with 5.41. As to “GATGATTGTTCTCCCAGCTGATGAATTTATGCAATCGAGTAAACAAATTTTCCTAATCTTTCTGTTCAAGCGCCATCTAC”, the binding signal (RPM ratio (pull-down/input)) worked out at 4.25. Then “GATGATTGTTCTCCCAGCTGATGAATTAAAAGCTTCGAGTAAACAAATTTTCCTAATCTTTCTGTTCAAGCGCCATCTAC”, with 0.348. For “GATGATTGTTCTCCCAGCTGATGAATTACCTTCGTCGAGTAAACAAATTTTCCTAATCTTTCTGTTCAAGCGCCATCTAC”, the binding signal (RPM ratio (pull-down/input)) worked out at 0.316.

Take “GATGATTGTTCTCCCAGCTGATGAATTACTTTACTCGAGTAAACAAATTTTCCTAATCTTTCTGTTCAAGCGCCATCTAC”: the binding signal (RPM ratio (pull-down/input)) was found to be 0.876. The same measure for “GATGATTGTTCTCCCAGCTGATGAATTATTACTGTCGAGTAAACAAATTTTCCTAATCTTTCTGTTCAAGCGCCATCTAC”: 0.462; for “GATGATTGTTCTCCCAGCTGATGAATTGGGTCGATCGAGTAAACAAATTTTCCTAATCTTTCTGTTCAAGCGCCATCTAC”: 0.294. The same measure for “GATGATTGTTCTCCCAGCTGATGAATTACGCGTATCGAGTAAACAAATTTTCCTAATCTTTCTGTTCAAGCGCCATCTAC”: 1.4. In the case of “GATGATTGTTCTCCCAGCTGATGAATTGCCCGACTCGAGTAAACAAATTTTCCTAATCTTTCTGTTCAAGCGCCATCTAC”, the binding signal (RPM ratio (pull-down/input)) worked out at 0.351. The same measure for “GATGATTGTTCTCCCAGCTGATGAATTTGGTAGTTCGAGTAAACAAATTTTCCTAATCTTTCTGTTCAAGCGCCATCTAC”: 2.3; for “GATGATTGTTCTCCCAGCTGATGAATTTCCATCGTCGAGTAAACAAATTTTCCTAATCTTTCTGTTCAAGCGCCATCTAC”: 0.336. Then “GATGATTGTTCTCCCAGCTGATGAATTCCGTTGTTCGAGTAAACAAATTTTCCTAATCTTTCTGTTCAAGCGCCATCTAC”, with 3.24; and “GATGATTGTTCTCCCAGCTGATGAATTAGCTGCGTCGAGTAAACAAATTTTCCTAATCTTTCTGTTCAAGCGCCATCTAC”, with 0.696.

Take “GATGATTGTTCTCCCAGCTGATGAATTGGCTTACTCGAGTAAACAAATTTTCCTAATCTTTCTGTTCAAGCGCCATCTAC”: the binding signal (RPM ratio (pull-down/input)) came to 2.85. In the case of “GATGATTGTTCTCCCAGCTGATGAATTCATCTCTTCGAGTAAACAAATTTTCCTAATCTTTCTGTTCAAGCGCCATCTAC”, the binding signal (RPM ratio (pull-down/input)) turned out to be 0.419. For “GATGATTGTTCTCCCAGCTGATGAATTGGGCCGTTCGAGTAAACAAATTTTCCTAATCTTTCTGTTCAAGCGCCATCTAC”, the binding signal (RPM ratio (pull-down/input)) was 0.7. As for “GATGATTGTTCTCCCAGCTGATGAATTGCTATTCTCGAGTAAACAAATTTTCCTAATCTTTCTGTTCAAGCGCCATCTAC”, the binding signal (RPM ratio (pull-down/input)) came to 1.54. For the sequence “GATGATTGTTCTCCCAGCTGATGAATTAGTCTGCTCGAGTAAACAAATTTTCCTAATCTTTCTGTTCAAGCGCCATCTAC”, the binding signal (RPM ratio (pull-down/input)) came out at 0.66. Then “GATGATTGTTCTCCCAGCTGATGAATTACATGATTCGAGTAAACAAATTTTCCTAATCTTTCTGTTCAAGCGCCATCTAC”, with 0.659; and “GATGATTGTTCTCCCAGCTGATGAATTGCTGACGTCGAGTAAACAAATTTTCCTAATCTTTCTGTTCAAGCGCCATCTAC”, with 0.742; and “GATGATTGTTCTCCCAGCTGATGAATTACGCGTTTCGAGTAAACAAATTTTCCTAATCTTTCTGTTCAAGCGCCATCTAC”, with 3.62. The same measure for “GATGATTGTTCTCCCAGCTGATGAATTGACTTCGTCGAGTAAACAAATTTTCCTAATCTTTCTGTTCAAGCGCCATCTAC”: 0.329; for “GATGATTGTTCTCCCAGCTGATGAATTTCCACACTCGAGTAAACAAATTTTCCTAATCTTTCTGTTCAAGCGCCATCTAC”: 0.354; for “GATGATTGTTCTCCCAGCTGATGAATTAACGGCCTCGAGTAAACAAATTTTCCTAATCTTTCTGTTCAAGCGCCATCTAC”: 0.443. For the sequence “GATGATTGTTCTCCCAGCTGATGAATTCTGTCCCTCGAGTAAACAAATTTTCCTAATCTTTCTGTTCAAGCGCCATCTAC”, the binding signal (RPM ratio (pull-down/input)) is 1.51. The same measure for “GATGATTGTTCTCCCAGCTGATGAATTATCGCTGTCGAGTAAACAAATTTTCCTAATCTTTCTGTTCAAGCGCCATCTAC”: 0.423.

Consider “GATGATTGTTCTCCCAGCTGATGAATTTTAGGTCTCGAGTAAACAAATTTTCCTAATCTTTCTGTTCAAGCGCCATCTAC”, for which the binding signal (RPM ratio (pull-down/input)) was 0.401. Regarding “GATGATTGTTCTCCCAGCTGATGAATTTCCTCGATCGAGTAAACAAATTTTCCTAATCTTTCTGTTCAAGCGCCATCTAC”, the binding signal (RPM ratio (pull-down/input)) was found to be 0.209.

Consider “GATGATTGTTCTCCCAGCTGATGAATTGTACATATCGAGTAAACAAATTTTCCTAATCTTTCTGTTCAAGCGCCATCTAC”, for which the binding signal (RPM ratio (pull-down/input)) was 0.885. Then “GATGATTGTTCTCCCAGCTGATGAATTTCGGTCGTCGAGTAAACAAATTTTCCTAATCTTTCTGTTCAAGCGCCATCTAC”, with 0.498; and “GATGATTGTTCTCCCAGCTGATGAATTAAACGGTTCGAGTAAACAAATTTTCCTAATCTTTCTGTTCAAGCGCCATCTAC”, with 0.323; and “GATGATTGTTCTCCCAGCTGATGAATTGACCGAGTCGAGTAAACAAATTTTCCTAATCTTTCTGTTCAAGCGCCATCTAC”, with 0.178. Then “GATGATTGTTCTCCCAGCTGATGAATTGCGGACGTCGAGTAAACAAATTTTCCTAATCTTTCTGTTCAAGCGCCATCTAC”, with 0.537; and “GATGATTGTTCTCCCAGCTGATGAATTCTTTGGATCGAGTAAACAAATTTTCCTAATCTTTCTGTTCAAGCGCCATCTAC”, with 0.196; and “GATGATTGTTCTCCCAGCTGATGAATTGAGGCCCTCGAGTAAACAAATTTTCCTAATCTTTCTGTTCAAGCGCCATCTAC”, with 0.84. For the sequence “GATGATTGTTCTCCCAGCTGATGAATTTCCCGGATCGAGTAAACAAATTTTCCTAATCTTTCTGTTCAAGCGCCATCTAC”, the binding signal (RPM ratio (pull-down/input)) was determined as 0.158.

Consider “GATGATTGTTCTCCCAGCTGATGAATTACACAACTCGAGTAAACAAATTTTCCTAATCTTTCTGTTCAAGCGCCATCTAC”, for which the binding signal (RPM ratio (pull-down/input)) was determined as 0.854. As to “GATGATTGTTCTCCCAGCTGATGAATTGTGGGTGTCGAGTAAACAAATTTTCCTAATCTTTCTGTTCAAGCGCCATCTAC”, the binding signal (RPM ratio (pull-down/input)) is 1.27.

As for “GATGATTGTTCTCCCAGCTGATGAATTTCAGTATTCGAGTAAACAAATTTTCCTAATCTTTCTGTTCAAGCGCCATCTAC”, the binding signal (RPM ratio (pull-down/input)) amounted to 0.896.

For the sequence “GATGATTGTTCTCCCAGCTGATGAATTAACTTCCTCGAGTAAACAAATTTTCCTAATCTTTCTGTTCAAGCGCCATCTAC”, the binding signal (RPM ratio (pull-down/input)) stood at 0.246. The same measure for “GATGATTGTTCTCCCAGCTGATGAATTCCGTCTGTCGAGTAAACAAATTTTCCTAATCTTTCTGTTCAAGCGCCATCTAC”: 0.686; for “GATGATTGTTCTCCCAGCTGATGAATTTCGCTTATCGAGTAAACAAATTTTCCTAATCTTTCTGTTCAAGCGCCATCTAC”: 1.8. Then “GATGATTGTTCTCCCAGCTGATGAATTCCGCACTTCGAGTAAACAAATTTTCCTAATCTTTCTGTTCAAGCGCCATCTAC”, with 1.22. Then “GATGATTGTTCTCCCAGCTGATGAATTAGTGTACTCGAGTAAACAAATTTTCCTAATCTTTCTGTTCAAGCGCCATCTAC”, with 4.59. For the sequence “GATGATTGTTCTCCCAGCTGATGAATTTTTGTATTCGAGTAAACAAATTTTCCTAATCTTTCTGTTCAAGCGCCATCTAC”, the binding signal (RPM ratio (pull-down/input)) was 2.57.

Take “GATGATTGTTCTCCCAGCTGATGAATTTCCAGCGTCGAGTAAACAAATTTTCCTAATCTTTCTGTTCAAGCGCCATCTAC”: the binding signal (RPM ratio (pull-down/input)) came out at 0.389.
